Each structure is given as a SMILES string. The campaign covered roughly 310,000 compounds. About 2,200 (0.71%) showed an effect of 50% or more. Effects have a minus sign here. The list shows a part of the results.

Sequence of human ether-à-go-go-related gene (hERG) potassium channel (Q12809 whole entry, looked up): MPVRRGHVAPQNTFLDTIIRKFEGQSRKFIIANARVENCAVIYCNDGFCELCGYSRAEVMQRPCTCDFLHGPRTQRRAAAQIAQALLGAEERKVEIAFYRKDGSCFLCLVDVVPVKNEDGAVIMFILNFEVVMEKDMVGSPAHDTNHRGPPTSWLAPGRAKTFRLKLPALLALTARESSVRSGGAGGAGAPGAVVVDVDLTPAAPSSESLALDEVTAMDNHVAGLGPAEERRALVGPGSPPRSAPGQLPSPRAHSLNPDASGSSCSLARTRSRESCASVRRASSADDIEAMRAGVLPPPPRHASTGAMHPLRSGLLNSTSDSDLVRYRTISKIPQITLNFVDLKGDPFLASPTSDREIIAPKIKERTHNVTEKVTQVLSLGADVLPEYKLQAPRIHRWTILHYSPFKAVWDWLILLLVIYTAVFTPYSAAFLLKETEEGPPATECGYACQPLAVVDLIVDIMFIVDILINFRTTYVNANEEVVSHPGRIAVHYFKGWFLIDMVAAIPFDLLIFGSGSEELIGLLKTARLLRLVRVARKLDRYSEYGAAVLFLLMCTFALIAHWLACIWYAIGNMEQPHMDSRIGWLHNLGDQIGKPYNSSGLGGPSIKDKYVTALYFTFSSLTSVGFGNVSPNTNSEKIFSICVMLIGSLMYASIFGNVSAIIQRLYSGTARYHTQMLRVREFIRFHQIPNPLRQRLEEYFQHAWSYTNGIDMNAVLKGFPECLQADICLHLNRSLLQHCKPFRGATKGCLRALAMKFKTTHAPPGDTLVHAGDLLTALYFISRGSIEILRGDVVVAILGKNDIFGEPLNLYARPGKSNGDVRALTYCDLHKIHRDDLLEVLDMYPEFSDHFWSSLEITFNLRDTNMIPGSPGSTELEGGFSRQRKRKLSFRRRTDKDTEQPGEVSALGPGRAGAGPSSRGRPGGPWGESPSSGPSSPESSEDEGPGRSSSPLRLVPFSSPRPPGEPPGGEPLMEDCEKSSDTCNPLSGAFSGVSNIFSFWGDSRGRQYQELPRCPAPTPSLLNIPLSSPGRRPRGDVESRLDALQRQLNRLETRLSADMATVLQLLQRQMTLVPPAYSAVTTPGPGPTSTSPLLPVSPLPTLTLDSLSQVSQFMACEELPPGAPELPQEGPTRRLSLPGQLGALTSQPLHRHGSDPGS

This experiment addresses human ether-à-go-go-related gene (hERG) potassium channel (human, UniProt Q12809). Nature of the experiment: primary screen, population patch clamp on CHO cells stably expressing hERG.
As for `Cc1cc[n+]2cc(-c3cccc([N+](=O)[O-])c3)c(-c3cccc([N+](=O)[O-])c3)cc2c1.[Br-]`, the “hERG current change (%, negative = inhibition) at 1uM” value was -22.7%.
Take `Cc1cccc(OCC(=O)NC(=S)N2CCCc3ccccc32)c1`: the “hERG current change (%, negative = inhibition) at 1uM” value came out at 13.2%.
Regarding `Oc1cccc(NC(=S)Nc2ccc(SC(F)F)cc2)c1`, the “hERG current change (%, negative = inhibition) at 1uM” value was determined as 7.38%.
The same measure for `O=c1ccc2cc3c([nH]c4ccc(Br)cc43)oc-2c1O`: 4.16%; for `COc1ccc(OC)c(C2CC(c3ccccc3)=NN2C(=S)Nc2ccccc2)c1` (stereo not drawn): 1.5%; for `Cc1ccc(/C=[N+](\[O-])c2ccccc2C)o1`: 11.3%.
On to `COc1ccc(S(=O)(=O)Nc2cc(C)ccn2)cc1`, for which the “hERG current change (%, negative = inhibition) at 1uM” value was 11.9%.
Take `CCCN1CNc2c(c(=O)[nH]c(=S)n2CCc2ccccc2)C1`: the “hERG current change (%, negative = inhibition) at 1uM” value is reported as 5.67%.
The same measure for `COc1ccc(-c2cnnc(N/N=C/C(C)=C/c3ccccc3)n2)cc1`: -2.09%; for `CC(C)c1onc(C(=O)NCc2ccc(F)cc2)c1[N+](=O)[O-]`: -1.72%.
Regarding `CC(=O)Nc1ccc(NC(=O)c2cc(-n3cnnc3)ccc2Cl)cc1`, the “hERG current change (%, negative = inhibition) at 1uM” value amounted to 9.85%.
As for `CCn1cc(C(=O)N(C)c2ccc(OC)cc2OC)c2cc(OC)c(OC)cc2c1=O`, the figure is 5.18%.
As to `CCOc1ccc(OCC)c(NC(=O)C2CCCN(C(=O)c3ccc(Cl)cc3)C2)c1` (stereo not drawn), the “hERG current change (%, negative = inhibition) at 1uM” value was found to be 0.365%.
As for `COCCNc1ncnc2c1[nH]c1ccccc12`, the figure is 4.48%.
In the case of `O=C(COCC(=O)N1CCOCC1)N1CCOCC1`, the “hERG current change (%, negative = inhibition) at 1uM” value was 16.4%.
As for `S=C(Nc1ccccc1Cl)NC1CCN(Cc2ccccc2)CC1`, the figure is 2.35%.
Regarding `CCOC(=O)CNC(=S)N1CC2C[C@@H](C1)Cn1c2cccc1=O`, the “hERG current change (%, negative = inhibition) at 1uM” value came to 19.8%.
As to `CC12CCC(=O)N1C(C(=O)NNC(=O)COc1ccc(Br)cc1)CS2` (stereo not drawn), the “hERG current change (%, negative = inhibition) at 1uM” value is 9.94%.
The same measure for `CC(=O)Nc1ccc(S(=O)(=O)NCCc2csc(-c3cccnc3)n2)cc1`: 12.7%; for `Cc1cc(C(=O)NCC(=O)OCC(=O)NCCc2ccccc2)ccc1[N+](=O)[O-]`: -3.61%.
Turning to `O=C(c1ccc2c(=O)n(Cc3ccc(Cl)cc3)c(=S)[nH]c2c1)N1CCOCC1`, the “hERG current change (%, negative = inhibition) at 1uM” value is reported as 10.8%.
The same measure for `CCc1ccc2c(CN3CC=C(c4ccccc4)CC3)cc(=O)oc2c1`: 2.85%; for `CCOC(=O)[C@@H]1[C@H]2COc3ccccc3[C@@H]2N2C(=O)N(c3ccc(OC)cc3)C(=O)[C@@]12C`: 13.7%; for `CN(C)c1cccc(C(=O)OCC(=O)Nc2ccccc2Sc2ccccc2)c1`: 5.59%.
As for `Cc1ccc(S(=O)(=O)NCCN2CCOCC2)c(C)c1C`, the figure is 12.1%; as for `CC(C)CN(C(=O)COC(=O)c1ccc([N+](=O)[O-])s1)c1c(N)n(Cc2ccccc2)c(=O)[nH]c1=O`, 0.568%; as for `C=CCOc1c2ccc(C(=O)NCc3ccc(OC)cc3)cc2nn1C`, 17.5%.
`CCCOC(=O)c1ccc(NC(=O)Cc2cccs2)cc1`: the “hERG current change (%, negative = inhibition) at 1uM” value was determined as 8.02%.
As for `O=C(NCc1cccnc1)c1cn(-c2ccccc2)nc1-c1ccccc1`, the figure is 3.68%.
On to `[N-]=C=C1C(=O)NC(=O)C([n+]2ccc(-c3ccncc3)cc2)C1c1ccccc1C(F)(F)F` (stereo not drawn), for which the “hERG current change (%, negative = inhibition) at 1uM” value worked out at 10.3%.
As for `COc1ccc(OC)c(CNC(=O)C2CCC(=O)N(CCCN3CCCC3=O)C2)c1` (stereo not drawn), the “hERG current change (%, negative = inhibition) at 1uM” value worked out at 0.323%.
As to `O=C(N/N=C/c1coc2ccc(Cl)cc2c1=O)c1cc(O)cc(O)c1`, the “hERG current change (%, negative = inhibition) at 1uM” value was -2.05%.
The same measure for `COc1cc(OC)c(NC(=O)/C=C/C(=O)O)cc1Cl`: 15.4%; for `COc1ccc(NC(=O)CN(c2ccc(OC)c(Cl)c2)S(=O)(=O)c2ccccc2)c(OC)c1`: 8.68%.
The same measure for `CC1CCCCC1NC(=O)C1CCCN1S(=O)(=O)c1cccc2nsnc12` (stereo not drawn): 7.85%; for `C=CCSc1nnc(-c2nnc(SCC=C)n2CC)n1CC`: 16.6%; for `COc1ccc(C(=O)NC(=S)N2CCCc3ccccc32)cc1OC`: 9.95%.
In the case of `Cc1cc(C)nc(N2CCCC(C(=O)NC(C)CCc3ccco3)C2)n1` (stereo not drawn), the “hERG current change (%, negative = inhibition) at 1uM” value came to 5.51%.
For `Brc1cnc2ccccc2c1N1CCCCC1`, the “hERG current change (%, negative = inhibition) at 1uM” value worked out at 13.8%.
The same measure for `CCCCNC(=O)c1ccc2c(c1)N(CC)C(=O)CS2`: 1.69%; for `COc1ccc(/C=N/NC(=O)CCN2CCCCC2c2cccnc2)cc1Cn1cc([N+](=O)[O-])cn1` (stereo not drawn): 2.74%; for `CCOc1ccccc1NC(=O)CSc1nnc(-c2cnccn2)n1CC`: 1.28%.
The same measure for `Cc1cc(C)n(-c2cc(N3CCN(C(=O)c4ccccc4C)CC3)ccc2[N+](=O)[O-])n1`: -9.21%; for `CCN1C(=O)[C@H]2[C@@H](c3ccc(C)cc3)N3C(=O)N(c4cccc(F)c4)C(=O)[C@@]3(Cc3ccc(Cl)cc3)[C@H]2C1=O`: 11.7%; for `OCC1(CCOc2ccccc2)CCN(CC2=Cc3cc(Cl)ccc3OC2)CC1`: 11.8%.
As for `Cc1cc(=O)oc2c3c(cc(OCC(=O)NC(C)C)c12)OC(C)(C)CC3`, the “hERG current change (%, negative = inhibition) at 1uM” value stood at 6.18%.
The same measure for `O=C(NCc1ccc(Cl)cc1Cl)Nc1ccccc1`: 6.66%.
As for `CN(C)c1cccc(C(=O)N/N=C/c2ccsc2)c1`, the “hERG current change (%, negative = inhibition) at 1uM” value came out at 6.79%.
As for `O=C(NCC1CCCO1)C(C(=O)c1ccc(F)cc1)n1ccccc1=O` (stereo not drawn), the figure is 14.5%; as for `O=C(c1cc2ccccc2o1)N(Cc1nnc(-c2ccccc2Cl)o1)C1CC1`, -3.08%.
As for `CCOC(=O)N1CCC(N2C(=O)c3ccccc3C2Nc2cc(Cl)c(OC)cc2OC)CC1` (stereo not drawn), the figure is 2.81%.
As for `O=C(CN(CCc1ccccc1)C(=O)Cn1nnc(-c2cccs2)n1)NCc1ccco1`, the “hERG current change (%, negative = inhibition) at 1uM” value is reported as -7.49%.
The same measure for `Cc1cnn(C(=S)NCCc2ccccc2)c1`: 8.03%; for `C/C(=N\NC(=O)COc1ccccc1F)c1cc2ccccc2o1`: 7.4%.
For the compound `Cc1csc2nc(CSc3ccc(Cl)cc3)cn12`, the “hERG current change (%, negative = inhibition) at 1uM” value is given as 0.767%.
The same measure for `COc1ccc(C(=O)N/N=C/C(C)c2ccccc2)cc1OC` (stereo not drawn): 1.75%; for `COc1cc(C)c(Br)cc1S(=O)(=O)N1CCCC1`: -12.7%.
Regarding `Cc1cc(C(=O)OCC(=O)c2cccc([N+](=O)[O-])c2)c2cccc(C)c2n1`, the “hERG current change (%, negative = inhibition) at 1uM” value came to 5.16%.
As for `O=C(NC1CCCc2ccccc21)C1CCN(S(=O)(=O)N2CCCCCC2)CC1` (stereo not drawn), the figure is 0.951%; as for `CCCCn1c(N)c(N(CCOC)C(=O)C2CC(=O)N(Cc3ccco3)C2)c(=O)[nH]c1=O` (stereo not drawn), 13.2%; as for `CC(=O)Nc1ccc(S(=O)(=O)N2CCC(NC(C)=O)(c3cccc(F)c3)CC2)cc1`, 1.86%.
With `Cc1ccc(NC(=O)CSc2nnc(-c3cccs3)o2)cc1S(=O)(=O)N(C)C`, the “hERG current change (%, negative = inhibition) at 1uM” value is 2.22%.
Turning to `CCOc1cc(C(=O)Nc2ccc(S(=O)(=O)NC3=NCCCCC3)cc2)cc(OCC)c1OCC`, the “hERG current change (%, negative = inhibition) at 1uM” value is listed as 3.88%.
For the compound `Cc1ccc(C)c(-n2c(CNC(=O)c3ccco3)nnc2SCC(=O)N2CCc3ccccc32)c1`, the “hERG current change (%, negative = inhibition) at 1uM” value is 18.2%.
Regarding `COc1ccccc1CN1CCCC(CN(CCN(C)C)C(=O)c2ccc(C)cc2)C1` (stereo not drawn), the “hERG current change (%, negative = inhibition) at 1uM” value is listed as -0.236%.
The same measure for `CCOC(=O)c1cnc2sccn2c1=O`: 10.5%; for `Cc1nc(SCC(=O)Nc2ccccn2)n[nH]1`: 16.3%; for `Cc1oc2c(O)c(O)ccc2c(=O)c1-c1ccccc1`: 6.32%.
The same measure for `CC1(C)CC2CC(C)(CN2C(=O)COC(=O)CNC(=O)c2ccc(Cl)c(Cl)c2)C1` (stereo not drawn): 2.31%; for `O=C(c1c[nH]c(C(=O)C(Cl)(Cl)Cl)c1)c1ccccc1Cl`: 10.8%; for `COc1cccc(NC(=O)CSc2ncnc3c2oc2ccccc23)c1`: 10.8%.
The same measure for `CN1CCN(c2nc3nonc3nc2N2CCN(C)CC2)CC1`: 4.65%.
For `C=CCn1cccc(C(=O)Nc2ccc(OC)c(OC)c2)c1=O`, the “hERG current change (%, negative = inhibition) at 1uM” value is on record as 10.8%.
The same measure for `O=C(NNc1nc(-c2ccccc2)c2cc(Br)ccc2n1)c1ccc(S(=O)(=O)N2CCCCC2)cc1`: 10.5%; for `O=C(O)c1ccc(N2C(=O)c3[nH]nc(-c4ccccc4)c3C2c2ccccc2)cc1` (stereo not drawn): 13.6%; for `CC(C)(C)NC(=O)NCCc1ccccc1`: 10.7%.
Take `Cc1nnc(SCc2cccs2)[nH]c1=O`: the “hERG current change (%, negative = inhibition) at 1uM” value was -7.03%.
As for `CCOC(=O)c1ccc(CNC(=O)Cn2nnc(-c3cccc(C)c3)n2)o1`, the figure is -9.37%; as for `O=C(CN1CCC(C(O)(c2ccccc2)c2ccccc2)CC1)Nc1ccccc1`, -5.06%.
For `Cc1cccc(-c2cc3nc(C)cc(NCCCn4ccnc4)n3n2)c1`, the “hERG current change (%, negative = inhibition) at 1uM” value is on record as -19%.
The same measure for `CCOC(=O)Cc1cc(C)[nH]c1C(=O)OCC`: 8.13%; for `CCOC(=O)CNC(=O)CSc1ncnc2c1cnn2-c1ccc(C)cc1`: 8.26%; for `O=C(/C=C/c1ccc2c(c1)OCO2)c1cccnc1`: 18.8%.
As to `CC(=O)OC1(c2ccccc2)CC(C(C)(C)C)CN(C(C)(C)C)C1.Cl` (stereo not drawn), the “hERG current change (%, negative = inhibition) at 1uM” value stood at 14.3%.
Regarding `CC(=O)Nc1c(O)c2ccccc2[nH]c1=O`, the “hERG current change (%, negative = inhibition) at 1uM” value stood at 4.66%.
Take `O=C(CN(Cc1ccco1)C(=O)CNS(=O)(=O)c1ccccc1)NCc1ccccc1`: the “hERG current change (%, negative = inhibition) at 1uM” value is listed as -5.97%.
As for `COc1ccc(NC(=O)CS(=O)CC(=O)N2CCN(C3CCCC3)CC2)cc1` (stereo not drawn), the figure is 21.4%.
